Reference: the supplement of paper PMC11741623
The other results are listed elsewhere or left out. Interaction screen of human proteins with wild-type SARS-CoV-2 proteins by split-DHFR complementation in yeast, 1 µg/mL methotrexate. Value = fitness of the pair (three or more lineages) minus that of the viral protein without a human partner, on a scale set by negative (0) and fused positive (1) controls, mean of up to three cultures; higher = more likely to interact. Active = false discovery rate below 0.05 (one-sided t-test) in at least one culture. Nearly all pairs are not hits, and differences among them are mostly noise (correlation between cultures about 0.3); most hits were seen in one culture only. Human sequences are the Swiss-Prot entries looked up by gene name; the clone may be another isoform. NSP2 values were corrected by the authors for a growth advantage. Listed are human proteins with a hit and a random twelfth of the others.

B1: VSIG2, Q96IQ7 (protein)
chain: MAELPGPFLCGALLGFLCLSGLAVEVKVPTEPLSTPLGKTAELTCTYSTSVGDSFALEWSFVQPGKPISESHPILYFTNGHLYPTGSKSKRVSLLQNPPTVGVATLKLTDVHPSDTGTYLCQVNNPPDFYTNGLGLINLTVLVPPSNPLCSQSGQTSVGGSTALRCSSSEGAPKPVYNWVRLGTFPTPSPGSMVQDEVSGQLILTNLSLTSSGTYRCVATNQMGSASCELTLSVTEPSQGRVAGALIGVLLGVLLLSVAAFCLVRFQKERGKKPKETYGGSDLREDAIAPGISEHTCMRADSSKGFLERPSSASTVTTTKSKLPMVV
B2: CYP11B1, P15538 (protein)
chain: MALRAKAEVCMAVPWLSLQRAQALGTRAARVPRTVLPFEAMPRRPGNRWLRLLQIWREQGYEDLHLEVHQTFQELGPIFRYDLGGAGMVCVMLPEDVEKLQQVDSLHPHRMSLEPWVAYRQHRGHKCGVFLLNGPEWRFNRLRLNPEVLSPNAVQRFLPMVDAVARDFSQALKKKVLQNARGSLTLDVQPSIFHYTIEASNLALFGERLGLVGHSPSSASLNFLHALEVMFKSTVQLMFMPRSLSRWTSPKVWKEHFEAWDCIFQYGDNCIQKIYQELAFSRPQQYTSIVAELLLNAELSPDAIKANSMELTAGSVDTTVFPLLMTLFELARNPNVQQALRQESLAAAASISEHPQKATTELPLLRAALKETLRLYPVGLFLERVASSDLVLQNYHIPAGTLVRVFLYSLGRNPALFPRPERYNPQRWLDIRGSGRNFYHVPFGFGMRQCLGRRLAEAEMLLLLHHVLKHLQVETLTQEDIKMVYSFILRPSMFPLLTFRAIN

These binders were tested against SARS-CoV-2 E (assay: yeast fitness gain over the viral ORF with no human partner (scaled fitness); higher = more likely to interact).
Experimental: (§1)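 Split mouse DHFR complementation in pooled diploid yeast: human ORFeome clones carry one fragment and viral ORFs the other; barcoded lineages compete in 1 µg/mL methotrexate and fitness is read by barcode sequencing in up to three cultures.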

Binder | yeast fitness gain
B1 | inactive: 0.0517
B2 | inactive: 0.0746

The binders below were run against SARS-CoV-2 M in the same assay as above.
Experimental: as §1

Binder | yeast fitness gain
B1 | inactive: 0.0164
B2 | inactive: 0.034

These binders were tested against SARS-CoV-2 NSP1 in the same assay as above.
Experimental: as §1

Binder | yeast fitness gain
B1 | inactive: -0.042
B2 | inactive: -0.00161

What follows are binders tested against SARS-CoV-2 NSP10 in the same assay as above.
Experimental: as §1

Binder | yeast fitness gain
B1 | inactive: -0.0192
B2 | inactive: 0.0286

Each binder was assayed against SARS-CoV-2 NSP12 in the same assay as above.
Experimental: as §1

Binder | yeast fitness gain
B1 | inactive: 0.0429
B2 | inactive: 0.0433

These binders were tested against SARS-CoV-2 NSP13 in the same assay as above.
Experimental: as §1

Binder | yeast fitness gain
B1 | inactive: 0.00757
B2 | active: 0.0824

What follows are binders tested against SARS-CoV-2 NSP2 in the same assay as above.
Experimental: as §1

Binder | yeast fitness gain
B1 | inactive: 0.0301
B2 | inactive: -0.12

What follows are binders tested against SARS-CoV-2 NSP5 in the same assay as above.
Experimental: as §1

Binder | yeast fitness gain
B1 | inactive: -0.0232
B2 | inactive: -0.00317

Each binder was assayed against SARS-CoV-2 NSP6 in the same assay as above.
Experimental: as §1

Binder | yeast fitness gain
B1 | inactive: 0.00298
B2 | inactive: -0.0085

What follows are binders tested against SARS-CoV-2 NSP8 in the same assay as above.
Experimental: as §1

Binder | yeast fitness gain
B1 | inactive: -0.51
B2 | inactive: 0.032

The binders below were run against SARS-CoV-2 ORF3B in the same assay as above.
Experimental: as §1

Binder | yeast fitness gain
B1 | inactive: -0.055
B2 | inactive: -0.00123

Each binder was assayed against SARS-CoV-2 ORF6 in the same assay as above.
Experimental: as §1

Binder | yeast fitness gain
B1 | inactive: -0.0635
B2 | inactive: -0.000161

The binders below were run against SARS-CoV-2 ORF7A in the same assay as above.
Experimental: as §1

Binder | yeast fitness gain
B1 | inactive: -0.0948
B2 | inactive: 0.0257

The binders below were run against SARS-CoV-2 ORF7B in the same assay as above.
Experimental: as §1

Binder | yeast fitness gain
B1 | inactive: -0.0515
B2 | inactive: 0.0145

These binders were tested against SARS-CoV-2 ORF9B in the same assay as above.
Experimental: as §1

Binder | yeast fitness gain
B1 | inactive: -0.0334
B2 | inactive: -0.00131

The binders below were run against SARS-CoV-2 ORF9Bwu (the 73-codon ORF) in the same assay as above.
Experimental: as §1

Binder | yeast fitness gain
B1 | inactive: -0.0218
B2 | inactive: 0.0106

What follows are binders tested against SARS-CoV-2 S in the same assay as above.
Experimental: as §1

Binder | yeast fitness gain
B1 | inactive: -0.295
B2 | inactive: 0.0773

These binders were tested against SARS-CoV-2 N in the same assay as above.
Experimental: as §1

Binder | yeast fitness gain
B2 | inactive: 0.044

The binders below were run against SARS-CoV-2 NSP14 in the same assay as above.
Experimental: as §1

Binder | yeast fitness gain
B2 | inactive: -0.026

Each binder was assayed against SARS-CoV-2 NSP15 in the same assay as above.
Experimental: as §1

Binder | yeast fitness gain
B2 | inactive: -0.0147

The binders below were run against SARS-CoV-2 NSP16 in the same assay as above.
Experimental: as §1

Binder | yeast fitness gain
B2 | inactive: -0.0552

What follows are binders tested against SARS-CoV-2 NSP4 in the same assay as above.
Experimental: as §1

Binder | yeast fitness gain
B2 | inactive: -0.0244

These binders were tested against SARS-CoV-2 NSP7 in the same assay as above.
Experimental: as §1

Binder | yeast fitness gain
B2 | inactive: -0.017

What follows are binders tested against SARS-CoV-2 NSP9 in the same assay as above.
Experimental: as §1

Binder | yeast fitness gain
B2 | inactive: 0.0653

The binders below were run against SARS-CoV-2 ORF10 in the same assay as above.
Experimental: as §1

Binder | yeast fitness gain
B2 | inactive: -0.00707

Each binder was assayed against SARS-CoV-2 ORF3A in the same assay as above.
Experimental: as §1

Binder | yeast fitness gain
B2 | inactive: 0.036

What follows are binders tested against SARS-CoV-2 ORF8 in the same assay as above.
Experimental: as §1

Binder | yeast fitness gain
B2 | inactive: -0.0261
